The other results are listed elsewhere or left out.

The experiment concerns the target T1, OsWOX13 (Oryza sativa, UniProt Q5QMM3 1-267).
T1 sequence: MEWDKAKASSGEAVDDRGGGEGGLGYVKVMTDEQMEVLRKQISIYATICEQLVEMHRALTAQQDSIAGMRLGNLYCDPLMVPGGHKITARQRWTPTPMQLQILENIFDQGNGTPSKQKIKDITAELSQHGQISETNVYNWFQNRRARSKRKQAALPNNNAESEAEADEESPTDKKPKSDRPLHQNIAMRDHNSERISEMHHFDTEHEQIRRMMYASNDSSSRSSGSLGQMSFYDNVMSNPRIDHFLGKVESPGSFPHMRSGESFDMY
The experiment can be described thus: protein-binding microarray (RPBM); PBS, 2% BSA, 51.3 ng/ul salmon testes DNA, 50 uM zinc acetate, 200 nM TF, 25 C, 1 h; high values mean tight binding. Conditions: protein: recombinant; tags: N-terminal polyhistidine and DsRed monomer fusion (pET32a); label: CyDye5-dUTP incorporated in the synthesized complementary strand; 3' TTTTT single-stranded linker to array surface; dsDNA, one strand shown. An outline of the steps:
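Per-feature fluorescence intensity (arbitrary units), read on an Axon 4000B scanner, is the binding signal. Transcription factors carrying an N-terminal polyhistidine tag and DsRed fusion were expressed in E. coli BL21-CodonPlus and purified on Ni–NTA. A custom Agilent array, made double-stranded by primer extension with Cy5-dUTP and blocked with 2% BSA, was incubated with 200 nM protein in PBS, 2% BSA, salmon testes DNA and 50 µM zinc acetate at 25 °C for 1 h and then washed.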
Take “ATAGTGATAGGTCTGTCAATGCAGTGAGGTCCTGAAAACCCGGAGTCACCTAGTGCAG”: the binding signal is 8210 fluorescence intensity (a.u.).
Then “TTAATATTTATAATTAGTATCCAATCATCCGATGTGATAGCGGAGTCACCTAGTGCAG”, with 29800 fluorescence intensity (a.u.); and “TGGATGATTTTGAAGGCAATGTGGACAAGGACTGGGGTGCCGGAGTCACCTAGTGCAG”, with 4880 fluorescence intensity (a.u.).
As to “ATTAAATTATTTGGAGCTATAGACAAATAGCCTAATCAAACGGAGTCACCTAGTGCAG”, the binding signal was 9990 fluorescence intensity (a.u.).
As for “CTATATAGATTAGATTTGGCTCGAAAGGAACAGGGACCCTCGGAGTCACCTAGTGCAG”, the binding signal is 17200 fluorescence intensity (a.u.).
Then “GTGTCAATCTGTCTATATAGTATATAGTCTATACAAAACACGGAGTCACCTAGTGCAG”, with 6550 fluorescence intensity (a.u.); and “AGCTTGATTAGCCCAAAGCTTGATGCCGACCAAGCTTTGTCGGAGTCACCTAGTGCAG”, with 34800 fluorescence intensity (a.u.).
Then “AAGATAAATCAGTTGATTTCTCAAATTCAATTGAGTCCCACGGAGTCACCTAGTGCAG”, with 17600 fluorescence intensity (a.u.); and “CACAGAATCCTTAATTAATTATATACATATATTGATCATGCGGAGTCACCTAGTGCAG”, with 16200 fluorescence intensity (a.u.); and “GGTGGTGTTAACATATGCTTGATTGAGTTTTAATTATTACCGGAGTCACCTAGTGCAG”, with 19400 fluorescence intensity (a.u.).
Next, “ATAATATATGTAAATTAATTTTAAGCTTTATTGAATTTACCGGAGTCACCTAGTGCAG”: 18900 fluorescence intensity (a.u.); “ACATCCATCACTGAATTTGACCCGTTAGCACTTTCACCATCGGAGTCACCTAGTGCAG”: 3640 fluorescence intensity (a.u.); “TTGGATTGGACCTGACCTGGGAGGCCATGACGGAGTTGGCCGGAGTCACCTAGTGCAG”: 3600 fluorescence intensity (a.u.).
With “TTTAAGATGTGGCAATTAATTATTTGTCATTCGCTGTCTACGGAGTCACCTAGTGCAG”, the binding signal was 8400 fluorescence intensity (a.u.).
Consider “AAGCTAATTGGCATGCTAGTTTTATCGGATCAGGTGAAGGCGGAGTCACCTAGTGCAG”, for which the binding signal was 29600 fluorescence intensity (a.u.).
Then “ACAGATAGTCTAATCATAGGAGATGCTTAGTCTCGTGGCACGGAGTCACCTAGTGCAG”, with 4990 fluorescence intensity (a.u.); and “AGTTAATCATTTTGAGTTACCTAGCAACAGATTTCAACCTCGGAGTCACCTAGTGCAG”, with 4530 fluorescence intensity (a.u.); and “TTCCTAATTGCCAAATAAAATCCTACTTTGAGTTTTGGATCGGAGTCACCTAGTGCAG”, with 24700 fluorescence intensity (a.u.).
Next, “CGTATACTGCTAATTTATAGCTTGATACATGTACTACTAACGGAGTCACCTAGTGCAG”: 7270 fluorescence intensity (a.u.); “GACTGAATTTGATCAATGGTTGTAAACAGTTGTAGTGCATCGGAGTCACCTAGTGCAG”: 3980 fluorescence intensity (a.u.); “GTATGATTGATCTTCTACGTCCATTATAATTACCACATTGCGGAGTCACCTAGTGCAG”: 52000 fluorescence intensity (a.u.).
“GATGCCATCTAATTTTAAATGATGATGTGGAGAAGAGAGTCGGAGTCACCTAGTGCAG”: the binding signal is 7100 fluorescence intensity (a.u.).
Then “TGCACCTATCATTAATTAATTATACATTTTCCTATATATACGGAGTCACCTAGTGCAG”, with 21800 fluorescence intensity (a.u.).
Next, “ACATGACTCTATAAATCATCATATCATCTTTGTGTAGGCCCGGAGTCACCTAGTGCAG”: 5290 fluorescence intensity (a.u.).
Then “TGAAATTAATGGACATCCTCAAATGATAACAATCCTTTCCCGGAGTCACCTAGTGCAG”, with 12400 fluorescence intensity (a.u.); and “CTGTTAGATTGGATAAGATAGAGTTTGTTAGGTTGTTAGCCGGAGTCACCTAGTGCAG”, with 31000 fluorescence intensity (a.u.).
Consider “TAAAAGGAGAGTCAATCAAACAAAGTTAATAGAACAAGGTCGGAGTCACCTAGTGCAG”, for which the binding signal was 5080 fluorescence intensity (a.u.).
Then “TAATTAATTAAGTATTAGTTAAAGATAATTGAAAAGATGGCGGAGTCACCTAGTGCAG”, with 47100 fluorescence intensity (a.u.); and “TGCTAACTGACGTCTGAGGTGGCTCGTGTGCAGTCGTCCACGGAGTCACCTAGTGCAG”, with 4560 fluorescence intensity (a.u.).
Then “CCAATTAATCAGGAGTCAATGACTCGCCTCATTTTACCTTCGGAGTCACCTAGTGCAG”, with 13000 fluorescence intensity (a.u.).
As to “TTCTTTCCGTGATTGGGGCTCGATGCGATGTAGTCTAGTGCGGAGTCACCTAGTGCAG”, the binding signal was 22200 fluorescence intensity (a.u.).
Next, “TGAGCTATCAGTCATGATTGCAGCCAACATGTAATTGTAACGGAGTCACCTAGTGCAG”: 11800 fluorescence intensity (a.u.).
Consider “ACTGTGACACATGATGAACTGTTTATTTTGCATGATCTATCGGAGTCACCTAGTGCAG”, for which the binding signal was 5480 fluorescence intensity (a.u.).
Then “AGGTAAGCATATAATTAGATACAATTAGGAGCAGCGGGAGCGGAGTCACCTAGTGCAG”, with 3330 fluorescence intensity (a.u.); and “TGAAATTGATCTTGTTTATTTCGTTTGGGAGAAACCTGTTCGGAGTCACCTAGTGCAG”, with 16700 fluorescence intensity (a.u.); and “TAGCTAATTTTACTTTCATTGATGCTGTACAGTGTCTTCGCGGAGTCACCTAGTGCAG”, with 11600 fluorescence intensity (a.u.).
As to “CTTCTTACTAATGGGCAAATCATGAAAGAAGTGCGGGAGTCGGAGTCACCTAGTGCAG”, the binding signal is 7910 fluorescence intensity (a.u.).
“TCCGCCTAATCAGAGCCGTTTGATTCTATGCTTTGGGCAACGGAGTCACCTAGTGCAG”: the binding signal was 5590 fluorescence intensity (a.u.).
Then “GTTTTGCTATGTGGATTGATCGTTTGCTGTGTTCGTTGGACGGAGTCACCTAGTGCAG”, with 3230 fluorescence intensity (a.u.); and “TTGAAAACTTTCAAATCAAGATTTGAAAACTTTCAACTCGCGGAGTCACCTAGTGCAG”, with 6030 fluorescence intensity (a.u.).
Next, “CTGATTACCTCTTGTCTAAACTAACGTCCTCAAGTGGAATCGGAGTCACCTAGTGCAG”: 17900 fluorescence intensity (a.u.).
Then “GTATTATATTATTAATTAATCGCCGTCACCTCGTCGCCATCGGAGTCACCTAGTGCAG”, with 15700 fluorescence intensity (a.u.).
